We go through ten molecules from patent US20190233519A1 (NANJING LEGEND BIOTECH, published 2019).

Changes are numbered by the printed parent chain.

Experiment [1] concerns the target T1, human PD-1 expressed on CHO cells (human, UniProt Q15116 25-288).
T1 construct: whole, on cells; Also used here for PD-1 on primary T cells (MLR) and on reporter Jurkat cells in the functional rows; also called CHO cells expressing human PD-1
Kind of experiment: FACS on CHO cells expressing human PD-1.

In experiment [2] the target is T2, human CTLA-4 expressed on CHO cells (human, UniProt P16410 37-223).
T2 construct: also called CHO cells expressing human CTLA-4; CTLA-4 expressing CHO cells
Kind of experiment: FACS on CHO cells expressing human CTLA-4.

A further experiment concerns the target T3, PD-1-His protein (UniProt Q15116 part only, limits assumed).
T3 construct: not shown: His tag
The experiment can be described thus: SPR, antibody captured by Fc, PD-1-His as analyte. (In general: SPR reads the build-up and loss of mass on a sensor chip optically.)

The target of experiment [3] is T4, CTLA-4-His protein (Homo sapiens (Human), UniProt P16410 37-161).
T4 construct: also called CTLA-4-His fusion protein; not shown: His tag
The experiment can be described thus: SPR, antibody captured by Fc, CTLA-4-His as analyte.

Experiment [4] concerns the target T1, human PD-1 expressed on CHO cells. Kind of experiment: FACS competition, biotin hPD-L1-Fc on CHO cells expressing human PD-1.
In experiment [5] the target is T5, biotin-labeled hCTLA-4/Fc protein (human, UniProt P16410 37-161, biotin label in the FACS competition assays (sites not given)).
T5 construct: also called CTLA-4 ECD (CTLA-4-Fc); CTLA-4-Fc (GenScript, Z03373-50)
The experiment can be described thus: FACS competition, biotin hCTLA-4-Fc on CHO cells expressing human B7-1.

In experiment [6] the target is T4, CTLA-4-His protein. The experiment can be described thus: SPR, CTLA-4-His immobilised, HCAb as analyte at 5-160 nM.
T4 sequence (P16410 37-161 limits assumed): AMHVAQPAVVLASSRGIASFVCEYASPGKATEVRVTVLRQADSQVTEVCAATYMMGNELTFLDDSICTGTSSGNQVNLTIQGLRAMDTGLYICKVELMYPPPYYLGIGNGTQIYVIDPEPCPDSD

T1 sequence (Q15116 25-288): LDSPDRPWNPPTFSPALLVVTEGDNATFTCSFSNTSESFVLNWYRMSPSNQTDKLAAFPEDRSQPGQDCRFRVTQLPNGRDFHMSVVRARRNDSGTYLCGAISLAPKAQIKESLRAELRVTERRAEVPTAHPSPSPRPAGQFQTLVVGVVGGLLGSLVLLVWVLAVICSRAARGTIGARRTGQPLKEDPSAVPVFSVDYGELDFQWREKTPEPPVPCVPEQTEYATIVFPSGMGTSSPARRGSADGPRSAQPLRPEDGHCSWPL
Chain of PD-1-His protein (Q15116 25-167 limits assumed): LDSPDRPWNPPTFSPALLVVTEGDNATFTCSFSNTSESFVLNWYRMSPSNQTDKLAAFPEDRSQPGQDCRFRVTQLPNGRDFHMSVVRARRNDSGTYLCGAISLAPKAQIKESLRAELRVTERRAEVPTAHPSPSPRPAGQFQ

B1: BCP-34 (Keytruda-scFv-hIgG1 hinge-A34311-IgG1 Fc) (bispecific antibody)
chain: EIVLTQSPATLSLSPGERATLSCRASKGVSTSGYSYLHWYQQKPGQAPRLLIYLASYLESGVPARFSGSGSGTDFTLTISSLEPEDFAVYYCQHSRDLPLTFGGGTKVEIKGGGGSGGGGSGGGGSQVQLVQSGVEVKKPGASVKVSCKASGYTFTNYYMYWVRQAPGQGLEWMGGINPSNGGTNFNEKFKNRVTLTTDSSTTTAYMELKSLQFDDTAVYYCARRDYRFDMGFDYWGQGTTVTVSSEPKSCDKTHTCPPCPQVKLEESGGGLVLPGESLRLSCEASGRTITTITMGWFRQAPGKERQFVASHSWTDNNPYYADSVKGRFIISRDNAGNRVYLQMHSLEPEDTAVYYCAATARRSFVGRQWYTEARQYDYWGQGTQVTVSS[gap - human IgG1 Fc]
For the molecule B1, the EC50 (in general, the concentration at which the effect is half-maximal) turned out to be 5.4 nM in experiment [1] and 24.3 nM in experiment [2]. Also, the dissociation constant Kd (in general, the free concentration of one partner at which half of the binding sites on the other are occupied at equilibrium, for simple one-to-one binding) in the experiment with PD-1-His protein was determined as 9.2 nM; with CTLA-4-His protein [3], 6.3 nM. The IC50 – broadly, the midpoint of a concentration-inhibition curve – came out at 4.8 nM in experiment [4] and 18.6 nM in experiment [5].

B2: AS07189TKDVH11F27 HCAb (Fc fusion)
heavy: EVQLVESGGGLVQPGGSLRLSCAASGFSPSVNYMGWFRQAPGKGREEVSSIYPTGGTFYTDSVKGRFTISRDNAKNTLYLQMNSLRPEDTAVYYCAAGKWGTDYWGQGTLVTVSS[gap - human IgG1 Fc]
notes: Humanized VHH fused to human IgG1 Fc, dimeric form
With B2, the binding result with CTLA-4-His protein [6] was “binds”.

B3: AS07189TKDVH11 HCAb (Fc fusion)
heavy: B2 heavy with F27D
notes: as for B2
As for B3, the binding result with CTLA-4-His protein [6] is on record as “binds”.

B4: A34311 HCAb (Fc fusion)
heavy: QVKLEESGGGLVLPGESLRLSCEASGRTITTITMGWFRQAPGKERQFVASHSWTDNNPYYADSVKGRFIISRDNAGNRVYLQMHSLEPEDTAVYYCAATARRSFVGRQWYTEARQYDYWGQGTQVTVSS[gap - human IgG1 Fc]
notes: Heavy chain-only antibody: A34311 VHH fused to human IgG1 Fc; also called HCAb A34311
Take B4: the concentration for half-maximal inhibition (IC50) in experiment [5] turned out to be 3.5 nM.

B5: AS07014VH11G54 HCAb (Fc fusion)
heavy: EVQLVESGGGLVQPGGSLRLSCAASGYTYSRHCLGWFRQAPGKGREAVSTIDSGGSTSYADSVKGRFTISRDNAKNTLYLQMNSLRPEDTAVYYCAIGPNPRYCSGAPNTRGAEHYFGYWGQGTLVTVSS[gap - human IgG1 Fc]
notes: as for B2
Consider B5, for which the binding result with CTLA-4-His protein [6] is on record as “binds”.

B6: AS07014VH11SGA HCAb (Fc fusion)
heavy: B5 heavy with D52S, N109A
notes: as for B2
As to B6, the binding result with CTLA-4-His protein [6] was “binds”.

B7: AS07014VH11SGS HCAb (Fc fusion)
heavy: B5 heavy with D52S, N109S
notes: as for B2
Consider B7, for which the binding result in the experiment with CTLA-4-His protein [6] was “binds”.

B8: AS07014VH11 HCAb (Fc fusion)
heavy: B5 heavy with G54D
notes: as for B2
As for B8, the binding result with CTLA-4-His protein [6] is “binds”.

B9: AS07014VH11SGQ HCAb (Fc fusion)
heavy: B5 heavy with D52S, N109Q
notes: as for B2
For the molecule B9, in the experiment with CTLA-4-His protein [6], the binding result was “binds”.

B10: A34311VH11 HCAb (Fc fusion)
heavy: EVQLVESGGGVVQPGRSLRLSCAASGRTITTITMGWFRQAPGKGREFVASHSWTDNNPYYADSVKGRFTISRDNAKNTLYLQMNSLRPEDTAVYYCAATARRSFVGRQWYTEARQYDYWGQGTLVTVSS[gap - human IgG1 Fc]
notes: as for B2
With B10, the binding result with CTLA-4-His protein [6] is on record as “binds”.
